Consider 42 sequences from article PMC7819943, “Rice protein-binding microarrays: a tool to detect cis-acting elements near promoter regions in rice”.

The list shows a part of the results.

The test has as its target T1, OsWOX13 (Oryza sativa, UniProt Q5QMM3 1-267).
T1 sequence: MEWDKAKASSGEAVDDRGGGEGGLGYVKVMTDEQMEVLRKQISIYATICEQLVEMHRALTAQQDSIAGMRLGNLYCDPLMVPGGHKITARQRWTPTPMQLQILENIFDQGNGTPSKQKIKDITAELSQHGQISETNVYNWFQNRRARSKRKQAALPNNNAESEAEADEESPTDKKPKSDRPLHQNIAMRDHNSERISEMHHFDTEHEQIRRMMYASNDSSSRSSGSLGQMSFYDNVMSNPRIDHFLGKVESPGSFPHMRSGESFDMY
Nature of the test: protein-binding microarray (RPBM); PBS, 2% BSA, 51.3 ng/ul salmon testes DNA, 50 uM zinc acetate, 200 nM TF, 25 C, 1 h; high values mean tight binding. The settings on record: protein: recombinant; tags: N-terminal polyhistidine and DsRed monomer fusion (pET32a); label: CyDye5-dUTP incorporated in the synthesized complementary strand; 3' TTTTT single-stranded linker to array surface; dsDNA, one strand shown. An outline of the steps:
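The binding signal is fluorescence intensity per array feature (arbitrary units). Readings came from an Axon 4000B scanner after a washed, 2% BSA-blocked, double-stranded custom Agilent array had been incubated for 1 h at 25 °C with 200 nM protein and 50 µM zinc acetate. The protein was a Ni–NTA-purified transcription factor fused N-terminally to polyhistidine and DsRed, expressed in E. coli BL21-CodonPlus.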
On to “CATATTGATGTTAATGAATCTAGAGATATATATCTATCTACGGAGTCACCTAGTGCAG”, for which the binding signal was 3520 fluorescence intensity (a.u.).
Turning to “GTCGCGATCAGCTAATTAGCTTAGCTGCTAGCAGATGAATCGGAGTCACCTAGTGCAG”, the binding signal is 4760 fluorescence intensity (a.u.).
For “ACTATTCAAATTTAAATTATCATAAACCACGTTAACTTACCGGAGTCACCTAGTGCAG”, the binding signal is 22700 fluorescence intensity (a.u.).
Under “GAGGAAAATAATTTGCACTATAGATTAATAATCAAAAGGCCGGAGTCACCTAGTGCAG” stands 9470 fluorescence intensity (a.u.); under “AGAGATCACTAATTATTTACGCATCAATTCGTCATTTCTTCGGAGTCACCTAGTGCAG”, 8060 fluorescence intensity (a.u.); under “AGCTAGACAGAGACAGTAGACACACAGCGCGCGTCCGTTGCGGAGTCACCTAGTGCAG”, 6670 fluorescence intensity (a.u.).
Consider “ACAGCCCAATCAAACAGCATCCGGATATTTCATCCGAACCCGGAGTCACCTAGTGCAG”, for which the binding signal was 3650 fluorescence intensity (a.u.).
As for “TTAATTTGCAAATTAACCACATTCGAATTTCTCTCTCTCTCGGAGTCACCTAGTGCAG”, the binding signal was 49600 fluorescence intensity (a.u.).
Turning to “CAAACATCCAATCTTCATATTTGATTATTTGTCTCACTTCCGGAGTCACCTAGTGCAG”, the binding signal is 12400 fluorescence intensity (a.u.).
In the case of “TTATGATTTAAGTTGAAATTTTCATATTAAATAAGTGCTACGGAGTCACCTAGTGCAG”, the binding signal is 22600 fluorescence intensity (a.u.).
As for “TTATAATCAGAACCTGTGGCTGATTGAGCAGGATTTGACACGGAGTCACCTAGTGCAG”, the binding signal is 7860 fluorescence intensity (a.u.).
Next, “CACCTTATTTATAATTTAGTTACTCTCCGGCGGTACCATCCGGAGTCACCTAGTGCAG”: 5930 fluorescence intensity (a.u.); “TAATCATGTTAAATTGATGTTATTAGATTTATCATTAAACCGGAGTCACCTAGTGCAG”: 14900 fluorescence intensity (a.u.); “TAGTCCATTAGCGCGTGATTAATTAAATATTAGCTAATTTCGGAGTCACCTAGTGCAG”: 16900 fluorescence intensity (a.u.).
For the sequence “AGGGTTGTGATTGGTTGGGAAGAGAATGTTGGTAGATAAGCGGAGTCACCTAGTGCAG”, the binding signal was 32000 fluorescence intensity (a.u.).
Regarding “AAACTAATTTATGAATATAACTTTTATATACGTATTGTTACGGAGTCACCTAGTGCAG”, the binding signal is 15200 fluorescence intensity (a.u.).
Next, “TGCGAAATTTAGCGTGAGAAATTAAGTGATTGATTGAGAGCGGAGTCACCTAGTGCAG”: 26900 fluorescence intensity (a.u.); “TGATGATTTGAACCGTACAGCCAAGGGTATGCCAGGTGAACGGAGTCACCTAGTGCAG”: 3340 fluorescence intensity (a.u.); “ATAGTCAAATCATCACTATTATAATTCTCATTAATCTTTCCGGAGTCACCTAGTGCAG”: 3970 fluorescence intensity (a.u.).
Next, “ATCATGGCGTAATTAGGCTTAAAAGATTCGTCTCGCAATTCGGAGTCACCTAGTGCAG”: 3990 fluorescence intensity (a.u.); “TAAAGTACTAATTTGTAGTAGTATGTATTTCAAATAGTGCCGGAGTCACCTAGTGCAG”: 4040 fluorescence intensity (a.u.); “CTTTTAATTTAATGATGTCCCAGCAGCTTAATTTGAGAGTCGGAGTCACCTAGTGCAG”: 28700 fluorescence intensity (a.u.).
Turning to “AGCGCAATTAGACTTAAAAGATTCGTCTCGCAATTTACATCGGAGTCACCTAGTGCAG”, the binding signal was 4020 fluorescence intensity (a.u.).
Next, “TAAATAGACAATTTGTGATAGTAATGTGCTCAATAAATCACGGAGTCACCTAGTGCAG”: 19600 fluorescence intensity (a.u.).
In the case of “ATTGATTGGAAGAGAGGTCAAGTACCCCGAAGGATGGTGACGGAGTCACCTAGTGCAG”, the binding signal is 18100 fluorescence intensity (a.u.).
As for “AAAATATAATAATTAGTATAGGATGGGACACATTCTGATACGGAGTCACCTAGTGCAG”, the binding signal is 8940 fluorescence intensity (a.u.).
Under “TTCTATTAAATTCTTCATGATTAATTACAATATCTAGAATCGGAGTCACCTAGTGCAG” stands 8070 fluorescence intensity (a.u.); under “TCAGTGATGATAGTGTCAATAACAATCTTATCCAGCAGCCCGGAGTCACCTAGTGCAG”, 4140 fluorescence intensity (a.u.); under “TCCTCTTGATTTAATTGAGACATCACATATCAACATTGATCGGAGTCACCTAGTGCAG”, 43000 fluorescence intensity (a.u.).
As for “TTTGATATCATGATTTATCGCATATGTTCGTATGTATACGCGGAGTCACCTAGTGCAG”, the binding signal was 19100 fluorescence intensity (a.u.).
As to “ACACAATCATTTATACAAAGCATATAATGGGCCTGTTCGGCGGAGTCACCTAGTGCAG”, the binding signal was 6100 fluorescence intensity (a.u.).
For “TAAAATTAGGATATGACAGATTCTTAGTTTTAAAATGTATCGGAGTCACCTAGTGCAG”, the binding signal was 17800 fluorescence intensity (a.u.).
Next, “AGTAATTAGAAAATTGCATTTGATTTCTAGGTTTCCTCCACGGAGTCACCTAGTGCAG”: 41900 fluorescence intensity (a.u.); “ATGGATAATTATCCATAACTTATGAGTACCTGGTTTCTTTCGGAGTCACCTAGTGCAG”: 34700 fluorescence intensity (a.u.); “TGTAATAATTAGCTGTAGCTCTTTGGCTGTGTTTAGATCACGGAGTCACCTAGTGCAG”: 16000 fluorescence intensity (a.u.).
“GGAAATTATTTCCCTTAGACATTTTCCAAACACTGCGTGTCGGAGTCACCTAGTGCAG”: the binding signal is 6540 fluorescence intensity (a.u.).
Turning to “TTAATGTTTTGACATGATTTGATCAAGCATTTAAATTTCCCGGAGTCACCTAGTGCAG”, the binding signal is 6070 fluorescence intensity (a.u.).
As for “TGAAAACATAATTAGTCGTGCATTGTCTGCCCATACCATACGGAGTCACCTAGTGCAG”, the binding signal is 4910 fluorescence intensity (a.u.).
On to “AATGTAATTTCTGGTAAATTTCACTTTTAAGTAAGTTTTACGGAGTCACCTAGTGCAG”, for which the binding signal was 3780 fluorescence intensity (a.u.).
With “ATGATAATGATATTATATTATACTCCCTCCGTTCTAAAATCGGAGTCACCTAGTGCAG”, the binding signal was 3390 fluorescence intensity (a.u.).
Take “ACTTATAATATGTAATTATAATATGAAACGGAGGGAGCATCGGAGTCACCTAGTGCAG”: the binding signal was 13400 fluorescence intensity (a.u.).
Turning to “AAATTAAAAGTTTGATTGAAATTGGAACGATGTGACGGAACGGAGTCACCTAGTGCAG”, the binding signal is 33700 fluorescence intensity (a.u.).
